Source: patent publication US7893299B2, “Interleukin-1 and tumor necrosis factor-αmodulators; syntheses of such modulators and methods of using such modulators” (Nereus Pharmaceuticals, Inc., priority 2005, dated 2011)

What was measured:
[1] = tested on: NF-κB DNA binding activity; assay: NF-κB DNA binding activity, EMSA, PC-3; assay type: cell-based; conditions: TNF-α
IRAK1 = assay: phosphorylation of IRAK1 and IκBα upon LPS stimulation in RAW264.7 cells; assay type: cell-based; conditions: LPS-stimulated RAW264.7; 1, 5, 10 and 20 μM
Method: Cells were treated with 1, 5, 10 and 20 μM of NPI-1387 for 1 hour and then stimulated with 10 ng/ml LPS for 10 or 30 min. To determine the phosphorylation of IRAK1, whole cell extracts were prepared in RIPA buffer [0.9% NaCl, 50 mM Tris-HCl (pH7.4), 1% Triton X-100, 1 mM EDTA, 0.25% Na-deoxycholic acid, 0.1% SDS, 1 mM Na3VO4, 1 mM NaF and protease inhibitors]. […] Following electro-transfer, the membranes were blocked in Blotto (5%, w/v) non-fat milk in 1×TBST [20 mM Tris, 0.8% (w/v) NaCl, pH 7.6, 0.1% (v/v) Tween 20]. Membranes were then incubated with primary antibodies against IRAK1 (Santa Cruz Biotechnology), total IκBα (Cell Signaling Technology), phospho-IκBα (Cell Signaling Technology) and Tubulin (Lab Vision) in Blotto for 2 hours. The membranes were washed in TBST and (where necessary) incubated with the HRP-conjugated secondary antibody in Blotto for 1 hour before washing extensively with TBST. HRP activity was visualized by utilizing either SuperSignal West Pico or Dura chemiluminescent detection systems (Pierce Biotechnology). […] The protein samples were separated by 10% NuPAGE MES precast gels (Invitrogen) and the extent of GST-IκBα phosphorylation was evaluated by western blotting using the antibody against phospho-IκBα (Cell Signaling Technology).

[2] = tested on: NF-κB DNA binding activity; assay: NF-κB DNA binding activity, EMSA, RPMI 8226; assay type: cell-based; conditions: LPS
[3] = tested on: NF-κB p65 subunit nuclear translocation; assay: nuclear translocation of NF-κB p65 / IRAK1 in LPS-stimulated RAW264.7 cells (fluorescence microscopy); assay type: cell-based; conditions: 5, 10 and 20 μM
Method: Cells were pretreated with NPI-1387 (compound 24 under scheme 4 above) at 5, 10 and 20 μM for 1 hr, and then stimulated with 50 ng/ml LPS for 30 min. Coverslips were transferred to clean plates, washed twice in Dulbecco's phosphate buffered saline (DPBS), fixed in 10% formaldehyde for 10 min, and permeabilized with 0.2% Triton X-100 for additional 10 min. Blocking medium (DPBS, 2% BSA, 0.1% Triton X-100) was added for 2 h, and removed by aspiration. Polyclonal goat anti-p65 antibody (Santa Cruz Biotechnology) was added at a 1:1000 dilution for 1 hr. The wells were washed 3 times with DPBS containing 0.1% Triton X-100, and […] of Alexa-488-conjugated anti-goat antibody (1:1000 dilution, Molecular Probes) were added for 30 min. Wells were washed again, and the coverslips were mounted face-down on microscope slides using Vectashield (Vector) mounting medium. Slides were observed under an Olympus fluorescent microscope, images acquired using a Magnafire digital camera, and processed using Adobe Photoshop.

RAW264.7 cells = assay: RAW264.7 cell viability / apoptosis, propidium iodide flow cytometry; assay type: cell-based, Murine; conditions: 10 μM
Method: To determine whether the test compounds induce apoptosis, flow cytometric measurement of propidium iodide (PI) staining was performed after incubation of the cells with 0.005% PI, following published protocols. Cells were analyzed in a FACScan cytometer equipped with a 25-mW argon laser. The quantification of the percentage of apoptotic cells was calculated using a dot plot of the forward scatter against the PI fluorescence. Cell sorting and analysis of viable and apoptotic populations was performed to confirm the criteria of gating.

[4] = tested on: IL-6 synthesis in RAW 264.7 cells; assay: SAC-induced IL-6 synthesis in RAW 264.7 cells; assay type: cell-based, Murine; conditions: for IL-6: SAC-induced
Method: (§1) Murine macrophage cells RAW 264.7 (1×10^6/ml) were pretreated for 30-60 minutes with varying doses of the synthetic compound of Formula (I) and a panel of analogs (diluted in 0.5% DMSO) prior to stimulation with various agents such as lipopolysaccharide (LPS) or a gram positive agent like heat-killed Staph aureus (SAC). Supernatants collected over a 72-hour period will be assayed for the levels of TNF-α, IL-1, IL-6, IL-10, IL-12 and other cytokines either by elisa or bioassay. Additional studies to evaluate the effects of the synthetic compound of Formulae (I), (II), (IIA) and (IIB) on cytokine signaling pathways such as, for example, Caspase-activity (Nr-1, Nr.3), transcription factors such as NF-κB, MAP-kinase activity (p38, ERK and JNK) will also be performed.

[5] = tested on: IL-1 synthesis in RAW 264.7 cells; assay: SAC-induced IL-1 synthesis in RAW 264.7 cells; assay type: cell-based, Murine
Method: as §1

[6] = tested on: TNF-α synthesis in RAW 264.7 cells; assay: LPS-induced TNF-α synthesis in RAW 264.7 cells; assay type: cell-based, Murine
Method: as §1

[7] = tested on: TNF-α synthesis in RAW 264.7 cells; assay: SAC-induced TNF-α synthesis in RAW 264.7 cells; assay type: cell-based, Murine
Method: as §1

C=CC(=O)C1(C)CCCC2(C)C3=CCC(C)(C=C)C[C@@H]3CC[C@H]12 (stereo in doubt) [NPI-1387, 1-[(1S,4aS,7R)-1,4a,7-Trimethyl-7-vinyl-1,2,3,4,4a,6,7,8,8a,9,10,10a-dodecahydro-1-phenanthrenyl]-2-propen-1-one]
NF-κB DNA binding activity [1]: inhibited TNF-α or LPS-induced NF-κB DNA binding activity in both cell lines
phosphorylation of IRAK1 (and its downstream target IκBα) (IRAK1): inhibited the phosphorylation of endogenous IRAK1 and its downstream target IκBα in a dose-dependent manner
NF-κB DNA binding activity [2]: inhibited TNF-α or LPS-induced NF-κB DNA binding activity in both cell lines
nuclear translocation of NF-κB (p65) / activated IRAK1 [3]: inhibited the nuclear translocation of activated IRAK1 and NF-κB

C=C[C@@]1(C)CCC=C2[C@H]1CC[C@@H]1[C@](C)(C(=O)O)CCC[C@@]21C [TTL1]
RAW264.7 cell viability (RAW264.7 cells): did not affect
IL-6 synthesis (in words) [4]: neither analog TTL1 nor TTL3 significantly inhibited IL-6 synthesis
IL-6 ([4]; compound at 0.1 μg/ml): 83 ng/mL
IL-6 ([4]; compound at 1 μg/ml): 86 ng/mL
IL-6 ([4]; compound at 5.4 μg/ml): 65 ng/mL
IL-1α ([5]; compound at 0.1 μg/ml): 950 pg/mL
IL-1α ([5]; compound at 1 μg/ml): 400 pg/mL
IL-1α ([5]; compound at 5.4 μg/ml): 300 pg/mL
TNF-α ([6]; LPS-induced, compound at 0.1 μg/ml): 57 ng/mL
TNF-α ([6]; LPS-induced, compound at 1 μg/ml): 60 ng/mL
TNF-α ([6]; LPS-induced, compound at 5.4 μg/ml): 38 ng/mL
TNF-α ([7]; compound at 0.1 μg/ml): 250 ng/mL
TNF-α ([7]; compound at 1 μg/ml): 285 ng/mL
TNF-α ([7]; compound at 5.4 μg/ml): 150 ng/mL

C=C[C@@]1(C)CCC=C2[C@H]1CC[C@@H]1[C@](C)(C(=O)OC)CCC[C@@]21C [TTL3]
RAW264.7 cell viability (RAW264.7 cells): did not affect
IL-6 synthesis (in words) [4]: neither analog TTL1 nor TTL3 significantly inhibited IL-6 synthesis
IL-1α ([5]; compound at 0.001 μg/ml): 200 pg/mL
IL-1α ([5]; compound at 0.01 μg/ml): 220 pg/mL
IL-1α ([5]; compound at 0.1 μg/ml): 190 pg/mL
IL-1α ([5]; compound at 1 μg/ml): 180 pg/mL
IL-1α ([5]; compound at 10 μg/ml): 170 pg/mL
TNF-α ([6]; LPS (1 μg/ml) + TTL3 1.0 μg/ml): 13 ng/mL
TNF-α ([6]; LPS (1 μg/ml) + TTL3 1 × 10^−4 μg/ml): 15 ng/mL
TNF-α ([6]; LPS (1 μg/ml) + TTL3 1 × 10^−5 μg/ml): 10 ng/mL
TNF-α ([6]; LPS (1 μg/ml) + TTL3 1 × 10^−6 μg/ml): 18 ng/mL
TNF-α ([6]; LPS (1 μg/ml) + TTL3 1 × 10^−7 μg/ml): 41 ng/mL
greater activity than TTL1 ([6]; TNF-α and IL-1 synthesis): approximately 100 times
TNF-α ([7]; compound at 0.001 μg/ml): 80 ng/mL
TNF-α ([7]; compound at 0.01 μg/ml): 75 ng/mL
TNF-α ([7]; compound at 0.1 μg/ml): 85 ng/mL
TNF-α ([7]; compound at 1 μg/ml): 60 ng/mL
TNF-α ([7]; compound at 10 μg/ml): 80 ng/mL
